The source gives no read counts; variants with many changes may rest on few reads.
B1: LINE1-mini (parent)
chain: GGCAGAGCUCAACACAGCGUGGCAAAGUGGCUGUGGCUAGACUGCC

Variants of: B1
Assay: self-cleavage, relative activity (ratio to wild type); higher = more cleavage; in vitro, sequencing; the parent is a self-cleaving ribozyme

| Variant | self-cleavage |
| --- | --- |
| G1U G5C G17C | 0.01 |
| G2A C8U G21A G36A | 1.86 |
| G1U C15U C23G U32C G35A C46A | 0.03 |
| G2A A12U G33A U34G | 0.04 |
| G2A A4C A16U G17U | 0.03 |
| G1U C37U C46A | 0.08 |
| G1U U32A C45U | 0.06 |
| G1U G19C G30A | 0.29 |
| G1U C10G C42G | 0 |
| G1U G17A G21C C45A | 0.05 |
| G2A C8U C18G G35C C45U | 0.14 |
| G2A A12C G19U G27C U28C G30A C31A | 0.01 |
| G1U G17C A39C | 0.03 |
| G1U G7U G22A | 0.03 |
| G2A A6U G7A G17C U34C G35A | 0.11 |
| G1U G17A G22C C42G | 0.05 |
| G1U C23G G27C G33A C46A | 0.57 |
| G2A A24C U32G U38C | 0.05 |
| G1U G19A G22A G44A | 0.13 |
| G1U G36U C46G | 0.05 |
| G1U G5A C10U C18U A41G | 0.03 |
| G1U C18U C46U | 1.43 |
| G1U C23U G36U | 0.03 |
| G1U U9A G33C | 0.01 |

| Variant | self-cleavage |
| --- | --- |
| G1U C10U C18A G35U C45A | 0.02 |
| G1U G7U U20G | 0.01 |
| G1U C23G U34G C46A | 0.29 |
| G1U C15G G33A G36C G44A | 0.01 |
| G1U G21A C37A | 0.11 |
| G2A A6G C13U C18A | 0.14 |
| G2A C10A U20A U38G | 0.01 |
| G2A A16U G33A G36A C42U | 0.04 |
| G1U G2A C10U A25U | 0.12 |
| G2A A6C A12C G17U G29A | 0.02 |
| G1U G2C A6U A41U | 0.04 |
| G1U G7U U34G A39U | 0.03 |
| G2A C10A C23U U38C | 0.07 |
| G1U U9A U34G | 0.01 |
| G1U G27U G35U | 0.16 |
| G1U G2A C13A A39C | 0.43 |
| G2A A4C C18G G27A G33A C37G G40C C42A | 0.01 |
| G1U G19U G36C | 0.06 |
| G2A C8U G22U A41U | 0.81 |
| G2A A12C C31G G35A A39C | 0.01 |
| G1U G21U G40C | 0.03 |
| G2A A6G G35A | 0.27 |
| G1U G2U U38C | 0.03 |
| G1U C23U U34G C37U A39G | 0.02 |

| Variant | self-cleavage |
| --- | --- |
| G1U G22U G27U | 0.3 |
| G1U C15A A16U | 0.1 |
| G1U U9G C23G C37G G40C C45A | 0 |
| G2A A11U U43A | 0.06 |
| G2A C3A G40U | 0.17 |
| G1U G2A G33U U34G G40C U43C | 0.03 |
| G1U G2C G22C U34C | 0.04 |
| G2A C3U G21U | 0.38 |
| G1U U20C G35C | 0.01 |
| G2A A4C U20A | 0.15 |
| G2A C8A C13U U38G | 0.04 |
| G1U G21U A24G | 0.64 |
| G2A A25C C46U | 0.49 |
| G1U G21U U38G C45U | 0 |
| G1U C13U C31A | 0.05 |
| G2A C3U G21A G29U G30A C42A G44U | 0.24 |
| G2A A6U C18U G27C | 0.04 |
| G2A C3U C8G C10A C13A | 0.06 |
| G1U G19U U28G G30A | 0.02 |
| G2A C10A C13G C46A | 0.02 |
| G1U C18A C31G G33C A39G | 0.03 |
| G2A A6G C10G | 0.01 |
| G2A A11U C18U G33C C42A | 0.02 |
| G1U C23U C31G G40A | 0.01 |

| Variant | self-cleavage |
| --- | --- |
| G1U C13A A26C | 0.28 |
| G1U G29C C42G | 0.02 |
| G1U C13A U20A A26U C42U C45U | 0 |
| G1U G5A G21C | 0.07 |
| G1U G2C C15G G33U | 0.03 |
| G1U G5U C15A | 0 |
| G2A C10G G29C | 0.2 |
| G1U C15G U20C A25C G33U | 0.01 |
| G2A A11C G17U G29A | 0.02 |
| G2A C3G A6C G19A C23U | 0.43 |
| G1U G7U C18U G21U | 0.03 |
| G1U U28G C46U | 0.29 |
| G1U C18A G33A | 0.02 |
| G1U C15U C23A | 0.64 |
| G1U C15A U34G C42U G44C | 0.03 |
| G1U G17C G35C A41C G44C | 0.02 |
| G1U C10U A11G A26C C31A C37U C46G | 0.01 |
| G2A C3U C8G | 0.07 |
| G1U U9A C15U | 0.05 |
| G2A C3U G5A G44C | 0.13 |
| G2A A11U C15G | 0.04 |
| G2A A4C C8A | 0.66 |
| G1U C10U A14G G30C C46G | 0.01 |
| G2A A16U G30U | 0.08 |

| Variant | self-cleavage |
| --- | --- |
| G1U G2A C18U U34G A39U C42A | 0.02 |
| G2A A26G U34A | 0.07 |
| G2A C3U G21U U32C | 1.98 |
| G1U C15A A24U G36U | 0.14 |
| G2A A26U C45A | 2.46 |
| G2A C13A G17C G40C A41U | 0.1 |
| G1U G17U G27A G30C | 0.29 |
| G1U G19A A24U G35C C46G | 0.06 |
| G2A A12C C42A | 0.01 |
| G2A C13A A25U C31G G35C A39G | 0.08 |
| G2A C8G C13U U34C | 0.15 |
| G1U U28G G44U | 0.04 |
| G1U C18G G30U | 0.18 |
| G2A A25U G40U A41G | 0.15 |
| G1U U34G U38C | 0.03 |
| G2A C13A A26G | 0.47 |
| G2A A12G U43C | 0.06 |
| G1U U20A A25U | 0.2 |
| G1U G7C A11G G22U C37A A41G | 0 |
| G2A C10A A16U C37A U38A | 0.04 |
| G1U C23U C42A | 0 |
| G2A A11C A25U G35C | 0.02 |
| G1U G40U G44C | 0.18 |
| G2A A11U A12G C15U A25C C45G | 0.03 |

| Variant | self-cleavage |
| --- | --- |
| G1U G7C A41G C46A | 0.03 |
| G2A C10U A41C | 0.02 |
| G2A A6G U9C A25C G30U U38C | 0.01 |
| G2A C10A C18A U20A G22C G36C C37U A41U | 0.01 |
| G1U G7C U38C | 0.09 |
| G1U C18A C37U U38C C42G | 0.02 |
| G2A A11C G33U U34C G44A | 0.02 |
| G2A A4U G30U | 0.42 |
| G1U G5C U9A C13U G36U | 0.03 |
| G2A A11U G33C | 0.02 |
| G1U C13A U43C | 0.05 |
| G1U G7U G40U | 0.04 |
| G1U U20A A25C C31U U34C C46G | 0.04 |
| G1U G5C A26U G33C | 0.02 |
| G2A C8A C23U C31U | 1.14 |
| G1U C31G U34C | 0.05 |
| G1U G17C G22C A41U | 0.02 |
| G1U G40C C42G | 0 |
| G1U G2U A6G A39C | 0.04 |
| G2A C8G U9C | 0.04 |
| G1U G27C C31A G33A | 0.03 |
| G2A C10A C23G U38C | 0.05 |
| G1U C18G C37G | 0.03 |
| G1U G30U U32G | 0.05 |

| Variant | self-cleavage |
| --- | --- |
| G1U G2A C10A C18G G30C | 0.01 |
| G2A C3A A16U U20A U43A | 0.61 |
| G2A A6G G36A | 0.37 |
| G2A A4G C18A | 0.52 |
| G2A C8A G22A G36U C37U | 0.04 |
| G1U G5U A26U A39U | 0.03 |
| G1U U34G U38A A39C | 0.07 |
| G2A C8G A12G C18A G22C | 0.05 |
| G2A C10A G17U C37U | 0.04 |
| G1U C18G C23G C46U | 0.02 |
| G1U G5U C13G A39G | 0.16 |
| G1U C10U G21A | 0.43 |
| G1U U32C U34A G36A U43A | 0.01 |
| G1U C15A A39G A41G C42A | 0.05 |
| G1U U9C C37A | 0.05 |
| G1U G19C U20G A24U G33U | 0.02 |
| G1U U20A G40U | 0.07 |
| G1U C23A U28G G35A | 0.03 |
| G2A A6U C8U U43A | 0.13 |
| G2A C10G A14U | 0.02 |
| G1U G22A G29A | 0.27 |
| G1U G27C U32G | 0.29 |
| G1U U9G C23A | 0.04 |

— the RNAGym collection of RNA variant scans (doi:10.7554/elife.90254)
